# Experimental data from the supplement of paper PMC4604168 (melanoma cell lines).
# The other results are listed elsewhere or left out. Many values rest on one well or one pass, so single values are uncertain.
# Tested on: MEL-HO
# Assay: cell count relative to DMSO control; melanoma cells; higher = more viable cells
# Details: library dose: standard library concentration; 72 h
# 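Note: cells treated in 1,536-well plates, then fixed and DAPI-stained, with nuclei counted from automated high-throughput microscope images.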
row,Structure (SMILES),cell count [%]
1,"CN(c1ncccc1CNc1nc(Nc2ccc3c(c2)CC(=O)N3)ncc1C(F)(F)F)S(C)(=O)=O + C[C@@H]1CCN(C(=O)CC#N)C[C@@H]1N(C)c1ncnc2[nH]ccc12 [CP690550] (first compound 0.4 µM, partner dose 5 µM)",108
2,"CCCS(=O)(=O)Nc1ccc(F)c(C(=O)c2c[nH]c3ncc(Cl)cc23)c1F + Oc1cc(-c2nc(-c3ccccc3)[nH]c2-c2ccncc2)ccc1Cl [L779450] (first compound 0.4 µM, partner dose 1 µM)",93.7
3,"C=C(c1ccc(C(=O)O)cc1)c1cc2c(cc1C)C(C)(C)CCC2(C)C [Bexarotene] + Oc1nc(-c2ccc(C(F)(F)F)cc2)nc2c1CSCC2 [XAV939] (first compound 10 µM, partner dose 10 µM)",82.6
4,"C=C(c1ccc(C(=O)O)cc1)c1cc2c(cc1C)C(C)(C)CCC2(C)C [Bexarotene] + CCCS(=O)(=O)Nc1ccc(F)c(C(=O)c2c[nH]c3ncc(Cl)cc23)c1F [PLX4720] (first compound 10 µM, partner dose 0.4 µM)",62.4
5,"CN(c1ncccc1CNc1nc(Nc2ccc3c(c2)CC(=O)N3)ncc1C(F)(F)F)S(C)(=O)=O + Cc1cc(N2CCOCC2)cc2[nH]c(-c3c(NC[C@@H](O)c4cccc(Cl)c4)cc[nH]c3=O)nc12 [BMS536924] (first compound 0.4 µM, partner dose 1 µM)",95.1
6,"CS(=O)(=O)c1ccc(C(=O)Nc2ccc(Cl)c(-c3ccccn3)c2)c(Cl)c1 [vismodegib] + O=C(CCCCCCC(=O)Nc1ccccc1)NO [vorinostat] (first compound 5 µM, partner dose 0.4 µM)",84.4
7,"NC1(c2ccc(-c3nc4ccn5c(=O)[nH]nc5c4cc3-c3ccccc3)cc2)CCC1 + Nc1cccc2c1CN(C1CCC(=O)NC1=O)C2=O [lenalidomide] (first compound 2 µM, partner dose 5 µM)",73.4
8,"CS(=O)(=O)c1ccc(C(=O)Nc2ccc(Cl)c(-c3ccccn3)c2)c(Cl)c1 [vismodegib] + COc1ccc(-c2ccc3c(N4CCOCC4)nc(N4C[C@@H](C)O[C@@H](C)C4)nc3n2)cc1CO [KU0063794] (first compound 5 µM, partner dose 0.1 µM)",83.9
9,"CS(=O)(=O)c1ccc(C(=O)Nc2ccc(Cl)c(-c3ccccn3)c2)c(Cl)c1 [vismodegib] + C=CCn1c(=O)c2cnc(Nc3ccc(N4CCN(C)CC4)cc3)nc2n1-c1cccc(C(C)(C)O)n1 [MK1775] (first compound 5 µM, partner dose 0.1 µM)",98.2
10,"NC1(c2ccc(-c3nc4ccn5c(=O)[nH]nc5c4cc3-c3ccccc3)cc2)CCC1 + Cn1cc(/C=C2\C(=O)Nc3cccnc32)c2ccccc21 [GW441756] (first compound 2 µM, partner dose 2 µM)",63.2
11,"C=C(c1ccc(C(=O)O)cc1)c1cc2c(cc1C)C(C)(C)CCC2(C)C [Bexarotene] + O=C1NC(=O)/C(=C/c2ccc(-c3ccc(F)cc3O)o2)S1 [AS252424] (first compound 10 µM, partner dose 5 µM)",79.8
12,"CN(c1ncccc1CNc1nc(Nc2ccc3c(c2)CC(=O)N3)ncc1C(F)(F)F)S(C)(=O)=O + Cn1c(Nc2ccc(C(F)(F)F)cc2)nc2cc(Oc3ccnc(-c4ncc(C(F)(F)F)[nH]4)c3)ccc21 [CHIR265] (first compound 0.4 µM, partner dose 0.4 µM)",60.1
13,"CS(=O)(=O)c1ccc(C(=O)Nc2ccc(Cl)c(-c3ccccn3)c2)c(Cl)c1 [vismodegib] + Cn1nnc2c(C(N)=O)ncn2c1=O [temozolomide] (first compound 5 µM, partner dose 10 µM)",91.6
14,"CCCS(=O)(=O)Nc1ccc(F)c(C(=O)c2c[nH]c3ncc(Cl)cc23)c1F + Cn1nnc2c(C(N)=O)ncn2c1=O [temozolomide] (first compound 0.4 µM, partner dose 10 µM)",85.6
15,"C=C(c1ccc(C(=O)O)cc1)c1cc2c(cc1C)C(C)(C)CCC2(C)C [Bexarotene] + C#Cc1cccc(Nc2ncnc3cc(OCCOC)c(OCCOC)cc23)c1 [erlotinib] (first compound 10 µM, partner dose 4 µM)",92.6
